# Test results from the supplement of paper PMC11417369.
# The other results are listed elsewhere or left out.
# System: PfHDP1 homeodomain (GST-tagged)
# Test: gcPBM binding intensity (ln(normalized median fluorescence intensity)); higher = stronger DNA binding
# Outline: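 Plasmodium falciparum DNA-binding domains carrying a GST tag were expressed in E. coli and applied for 1 h, at about 25 μg on average, to an Agilent 4 × 180k array. The array held primer-extended double-stranded 36-bp intergenic genomic probes together with negative controls, and binding took place in 1× PBS with 1% milk, 0.2 mg/ml BSA, 0.5% salmon testes DNA and 0.03% Triton X-100. An Alexa488 anti-GST antibody detected bound protein, and the array was scanned at 488 nm. Binding intensity is taken as the highest Masliner-normalised natural-log median intensity across replicate spots of either probe orientation.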
row,Sequence,gcPBM binding intensity (ln)
1,ATTTTATTTTTTTGAAGTACGAATTCCGAGAAGAAA [XGTACX_site43],6.6
2,TATTCAAAAATATAAACAATGAAACAGTATAATATG [CACACA_negctrl_site1482],6.45
3,TATAGTTCTTCTATTTGTACATATATTATTATTTAA [XGTACX_site895],6.39
4,AAGAAAAAGACTTCATGAAAAAGAATTTTTTTAATT [TGCATGCA_negctrl_site473],5.86
5,TTATAATCAATGAATACACACATATATTTAATTAAT [CACACA_site3613],6.4
6,ATATATTTTTTTTTTATTTTATTATTATAATTTATC [XGTACX_negctrl_site16],6.33
7,TAATATTATTTTTCAGTGCAATATAACCTTAGAATT [GTGCAC_site9417],9.18
8,TAATATAATAATAATTGTACTTTTCATAGTGTAATT [XGTACX_site8152],6.1
9,ATTATAATTATCAAGGTGCGTGTATTATAATAAATA [GTGCAC_site9917],7.29
10,AAAAAAAAAAAACACACACACAAAATAAACAAACAA [CACACA_site2721],6.96
11,AATAAATTAAATAAAAATGTTTAACATAAAATATGA [GTGCAC_negctrl_site373],6.4
12,ATATATCAAGGGAGTGAATGTTATGCATATGAATAT [TGCATGCA_negctrl_site573],6.74
13,GGATATTATATAAAGTGTACAAGACAAATATATACA [XGTACX_site8173],6.15
14,AAATTAACAAACTGTAGTACTAACAATATATACAAA [XGTACX_site1772],6.41
15,TATTCTTACAAAAGTAGTACAATCATTCATATTTTT [XGTACX_site631],6.42
16,AAAAATGAAAAATGAAAAATGAAAAATGAAAAATAA [CACACA_negctrl_site695],6.55
17,TAGTTTCAAGTAGGACGTACATATAAAAGGATTTTT [XGTACX_site7136],6.43
18,AAAGAAATGAAATATACACACATACATATATACATA [CACACA_site9335],6.36
19,AATTAAAAAAGTAATTAACACACAATAATGTAATGC [CACACA_site9388],6.51
20,GTTCTGTAAATACGTGCACACACAAATCACAAATGT [CACACA_site7999],9.67
21,TTTTTTTTCTTTTTTTGTACATAATAATATATAAAT [XGTACX_site6778],5.98
22,GATATATTTTATATATGTACATACAATGGTAAATAT [XGTACX_site2759],6.68

row,Sequence,gcPBM binding intensity (ln)
1,AACTGTAAAAAATATAAACACACATAGAAATATATA [CACACA_site8002],6.49
2,TATGTGTGAAAAAAATGTACATATATATAAATTATA [XGTACX_site7202],6.65
3,ATATATATATATAATAGTACATATATTTTGAAAGAT [XGTACX_site5800],8.75
4,TATATAAACATATAAACATGCAATATATATATGTTA [TGCATGCA_site765],6.06
5,AAAAAAATTAAATCAAGTACTCATTCTTAAATTATA [XGTACX_site1274],5.76
6,AAAAATATATAACAAAGTACATATATATTTAGTAAT [XGTACX_site8791],6.28
7,GGAAAAAAACTTATGAGTACACATAAATATAGCACA [XGTACX_site6686],7.55
8,ATATTGATACATCCAATACACACTACATATAATGAT [CACACA_site1874],6.82
9,TATATTTTCTATAGGTGTACTCCACATGCGGTGTTA [XGTACX_site7471],6.17
10,AATATATATAAATATTGTACAAAAATATATATATAT [XGTACX_site2910],9.01
11,TCCCTCTTTTTATTCTCACACACGTTTATATATAAA [CACACA_site1644],7.62
12,ATATATGATGTAAAAGCACACATATATATATATATA [CACACA_site9330],9.34
13,TATTATTATCTTACCACACACAATGTACGAAAAGAT [CACACA_site352],6.51
14,TGTAGGTATTATTATACACACATAAAAAAAAAAAAA [CACACA_site3598],6.57
15,TAAAATATTATAAAATGTACAAAACATATAAATATA [XGTACX_site5315],6.14
16,AAATTAAAAAGACATTCACACATTTTCATCTTAACA [CACACA_site5221],6.19
17,TAACATATAATATTCACACACATATATATATTATAT [CACACA_site988],6.81
18,AAACATATATATATTATATATATATATATATATATG [GTGCAC_negctrl_site182],7.39
19,CGATATGTTCAATATTGTACTATTTATAATAATATG [XGTACX_site3051],6.47
20,ATGGCCATAATATAGACACACATATATAAATATATA [CACACA_site2230],6.39
21,TATTGACAAAATAGCTGTACAAATTAAAAGAAATAA [XGTACX_site4415],6.36
22,TCTTACTAATATCGCACACACATATGTAGACGGGAT [CACACA_site87],7.39

row,Sequence,gcPBM binding intensity (ln)
1,TATTTATATGGACACACACACATATAAATAAATAAA [CACACA_site6346],7.11
2,TTTAATTGATAATGAAGACAATTATATGCATCCAAA [TGCATGCA_negctrl_site138],6.29
3,TTATTGTCTTCTCATATACACACTTTTATGACTATC [CACACA_site3142],7.18
4,CTTAAAAAAAAAAAATGTACACATAAAAAAAATACA [XGTACX_site6700],6.63
5,GGAAAAACCATTCGCACACACACATAATATATAATA [CACACA_site1424],7.53
6,ATAATAATATATATTACACACGCATCGTTCATTTAT [CACACA_site8752],7.06
7,ATTAATATATATGGATGTACTTATGTATGTATGCAT [XGTACX_site2263],6.39
8,CATGTATAATATAATACACACTATATAATATACACC [CACACA_site5267],6.95
9,ATTTTATTCTAAAAAGGTACACATATTATTTTATGA [XGTACX_site7233],6.08
10,TAAATAAGGAAGGAAACACACATTAAAAAATAAATA [CACACA_site618],6.42
11,TTTTTAAATTATTTGAAAAAAAGAAAATTATAAACA [CACACA_negctrl_site1599],6.33
12,AACAGAAGCACATACACACACTCAAAAAAAAAAAAA [CACACA_site5652],6.74
13,ATTTAGAAATATATTTGTACATATATATATATATAT [XGTACX_site7129],9.3
14,ATTCAAACAAATTAATGTACATATATATAAGATATT [XGTACX_site1531],6.71
15,TACCCTGATCGGCATGCATGTAAGTAACAAATATAT [TGCATGCA_site153],6.66
16,TGTTGATAAAAAATAAAAAATAAAAAAATAAAATAT [TGCATGCA_negctrl_site559],6.45
17,CTACATATTAATATATGTACATATTAATATATCTAA [XGTACX_site7118],6.07
18,ATAAAAAGAAAAAAGGGTACACTATACTATTTAAAA [XGTACX_site4467],6.17
19,ATATATACATATAAATGTACATAATTATTATGCACA [XGTACX_site1261],9.09
20,TTAAAGCTTACATATACACACATACATAAATTCATA [CACACA_site8785],6.72
21,TATGATGATATAAAAACACACACATATAATATAATA [CACACA_site8321],6.89
22,GTAAAATAAAATATATGTACATATGTATATGAGGTA [XGTACX_site3743],7.15

row,Sequence,gcPBM binding intensity (ln)
1,TTTTGATCATCCAAAATATCTTCATCTGAACTACTA [CACACA_negctrl_site939],6.04
2,GACATATTCCCCCCCACACACACACCCACATACATA [CACACA_site2302],8.81
3,TTAATGTTGTATGGTTGTACAATAAGCCCCTTTTAA [XGTACX_site2484],6.5
4,TTATTTGAACAATATGCACACATTTTATTTATTTTA [CACACA_site3420],10.1
5,TATAAAGCATATTAAAGTACTTATTTTCCTTTTTCT [XGTACX_site8892],6.27
6,TTTTATTTTATTCTTAAATAAGTATTATAAAATATG [XGTACX_negctrl_site201],5.94
7,TATATATATATGTGCACACATAATAAAAAAAAAAAT [CACACA_site3831],9.99
8,AAAATATATATATATATATATATATGTATACTCCTA [XGTACX_negctrl_site312],7.28
9,TTTTATGTTTCAAAATGTACATTAAAATATACCATA [XGTACX_site1713],6.14
10,TTATTTATAAATATTAATTTTTTTTTTTTTTTTTTT [XGTACX_negctrl_site105],6.62
11,TTAATTAAAACGAATACACACATAAATATATAAAAG [CACACA_site1254],6.86
12,ATATATATATTTTTTAAACACACACCGAAATATTTG [CACACA_site8937],7.7
13,TTTTATTATTGAATACTAGTATATATAATATGAAGA [CACACA_negctrl_site910],6.62
14,CATATGCATACTATACGTACATATGTATATAATATA [XGTACX_site7738],6.6
15,AACTTACTTGGACATACACACATATAGATTTATATA [CACACA_site7412],6.87
16,GTACAAATGTTGTGTATATATACACACATACATATA [XGTACX_negctrl_site276],7.51
17,ATGTAGTTTTATCAGTGTACAAGTATTTTATCACAT [XGTACX_site8958],6.53
18,TTTTTATATAACCTTCTTAATTCTTTTTTTTTTTTT [XGTACX_negctrl_site591],6.16
19,AAAACAAAATTATGAACATGCAAGGTAAAATTGTAA [TGCATGCA_site775],6.92
20,AATATAATATAATGCACACATAAAAAAAAAATCAAA [CACACA_site122],11
21,TTTTCAAAGATATATACACACATGCATATTACGGTG [CACACA_site6505],6.6
